{
  "source": "PubChem BioAssay AID504832",
  "about": "(National Center for Advancing Translational Sciences (NCATS), 2011)",
  "note": "Where “and” joins values, the source holds several entries; their conditions need not be identical. Identical values can stand only once. The whole screen tested about 310,000 compounds, of which about 18,000 (5.8%) were called active. Inconclusive means that the source gave no clear call. Such entries were picked first, then a sample of the others. Calls follow the shape of the dose curve; as a rule, active = well fitted inhibition curve with a large enough effect; inconclusive = small, poorly fitted or top-dose-only effect, or another doubt; inactive = no such curve, though single readings can be large or run the other way. No potency is given beside an inconclusive call; the fits are too rough. % is scaled to controls: 0 for no effect and ±100 for the full control effect; potency is read from the fitted curve at half-maximal effect; tags tell the direction and shape of the fitted curve.",
  "data": [
    {"assay": "Primary qHTS for delayed death inhibitors of the malarial parasite plastid, 48 hour incubation", "conditions": "P. falciparum luciferase growth in erythrocytes; series mostly up to 28.7 µM; activity change, negative = inhibition: at the top concentration", "method_in_brief": "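Luciferase-expressing parasites in RBCs, 2% Hct / 0.1% parasitemia final; RPMI 1640 + 0.5% Albumax; 37 C, 5% CO2, one generation; luminescence read-out, lower signal = inhibition.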", "values": [
      {"smiles": "CC[C@@H](C(=O)[C@@H](C)[C@@H](O)[C@H](C)CCc1ccc(C)c(O)c1C(=O)O)[C@H]1O[C@](CC)([C@H]2CC[C@](O)(CC)[C@H](C)O2)C[C@@H]1C", "Potency": "active: 0.0928 µM"},
      {"smiles": "CCOc1ccc2[nH]c3nc(SCC(=O)NC4CCCC4)nnc3c2c1", "activity change, negative = inhibition": "inactive: 1.69%"},
      {"smiles": "Cn1nc(C(=O)N2CCN(c3cccc(Cl)c3)CC2)c2c1-c1ccccc1S(=O)(=O)C2", "Potency": "inconclusive [inhibitor, partial curve]"},
      {"smiles": "N#Cc1cc(-c2ccccc2)cn(Cc2c(Cl)cccc2Cl)c1=O", "Potency": "inconclusive [inhibitor, partial curve]"},
      {"smiles": "CSc1ccccc1NC(=S)N/N=C/c1cccn1Cc1ccc(F)cc1", "Potency": "inconclusive [inhibitor, single point]"},
      {"smiles": "COc1ccc(COC(=O)c2ccc(S(=O)(=O)N3CCCCC3)cc2)cc1OC", "Potency": "inconclusive [inhibitor, single point]"},
      {"smiles": "CCN(CC(=O)NC(C)(C)C)C(=O)c1ccccc1SCC(=O)NC1CCCCCCC1", "Potency": "active: 10.4 µM"},
      {"smiles": "CC(=O)Nc1cnc2ccccc2n1", "activity change, negative = inhibition": "inactive: 5.54%"},
      {"smiles": "Oc1ccc(C2NCc3ccccc3-n3cccc32)cc1Cl", "note": "(stereo not drawn)", "Potency": "active: 1.65 µM and active: 657 nM"},
      {"smiles": "CC(OC(=O)c1ccc(Cl)c(S(=O)(=O)N2CCOCC2)c1)C(=O)Nc1ccc(S(N)(=O)=O)cc1", "note": "(stereo not drawn)", "Potency": "inconclusive [inhibitor, single point]"},
      {"smiles": "CCN(CC)CCn1c2c(c(SCC(=O)Nc3ccc4c(c3)OCCO4)nc1=O)CCC2", "Potency": "inconclusive [inhibitor, partial curve]"},
      {"smiles": "CCOC(=O)N1CCN(c2nc(-c3cccc(OC)c3)cc(C(F)(F)F)n2)CC1", "Potency": "inconclusive [inhibitor, single point]"},
      {"smiles": "CCN1C(=O)CSc2ccc(C(=O)NCc3ccccc3OC)cc21", "Potency": "inconclusive [inhibitor, partial curve]"},
      {"smiles": "CNC(=S)Nc1ccc(OCc2ccccc2)cc1", "activity change, negative = inhibition": "inactive: 40.9%"},
      {"smiles": "O=C(Cn1c(NCCO)nc2ccccc21)c1ccc(Cl)cc1Cl", "Potency": "active: 13.1 µM"},
      {"smiles": "CN(CCOc1ccc(Cl)cc1)C(=O)c1cc(S(=O)(=O)N2CCOCC2)ccc1N1CCCC1", "Potency": "inconclusive [inhibitor, single point]"},
      {"smiles": "CCN(CC)c1ccc(C2C3CCCCC3(O)CCN2C(=O)c2cccs2)cc1", "note": "(stereo not drawn)", "Potency": "inconclusive [inhibitor, partial curve, poor fit]"},
      {"smiles": "CC1CCC(C(C)C)C(OC(=O)C[n+]2cc(-c3ccc(Cl)cc3)n3c2CCCCC3)C1", "note": "(stereo not drawn)", "Potency": "active: 2.94 µM"},
      {"smiles": "O=C(NNC(=O)c1ccccc1F)c1ccc2nc[nH]c2c1", "activity change, negative = inhibition": "inactive: 52.4%"},
      {"smiles": "Cc1ccc(C2=NC(C(F)(F)F)(C(F)(F)F)c3c(n(-c4ccc(F)cc4)c(=O)[nH]c3=O)N2)cc1", "Potency": "inconclusive [inhibitor, single point]"},
      {"smiles": "CCN(CC)c1ccc(C=C(c2nnnn2-c2ccccc2)c2nnnn2-c2ccccc2)cc1", "Potency": "inconclusive [inhibitor, single point]"},
      {"smiles": "CCN(C(=O)CSc1ncccn1)c1c(N)n(Cc2ccccc2)c(=O)[nH]c1=O", "Potency": "inconclusive [inhibitor, single point]"},
      {"smiles": "COCc1c(C(=O)NCC2COc3ccccc3O2)oc2ccccc12", "note": "(stereo not drawn)", "Potency": "active: 11.7 µM"},
      {"smiles": "COc1ccc(NC(=O)CN(C)C(=O)/C=C/c2cn(-c3ccccc3)nc2-c2cccs2)cc1", "Potency": "inconclusive [inhibitor, single point]"},
      {"smiles": "COc1ccc(-c2nn(-c3ccccc3C)cc2CNCCc2cnc[nH]2)cc1F", "Potency": "inconclusive [inhibitor, single point]"},
      {"smiles": "Cc1ccc(-c2nnn(CC(=O)N(CCN3CCOCC3)C(C(=O)NC(C)(C)C)c3ccc(C)o3)n2)cc1", "note": "(stereo not drawn)", "Potency": "inconclusive [inhibitor, partial curve, poor fit]"},
      {"smiles": "Cc1ccc(S(=O)(=O)NC2c3cccc4cccc(c34)C2Sc2ncccn2)cc1", "note": "(stereo not drawn)", "Potency": "inconclusive [inhibitor, single point]"},
      {"smiles": "CCCCC#Cc1ccccc1CC(=O)Nc1ccccc1", "Potency": "inconclusive [inhibitor, single point]"},
      {"smiles": "COC(=O)Cn1c2nc3ccccc3nc2c2cccc(C)c21", "Potency": "inconclusive [inhibitor, single point]"},
      {"smiles": "Cc1ccc(C(=O)c2c3ccc(C(F)(F)F)cc3[n+]([O-])n2CCCN)cc1", "Potency": "inconclusive [inhibitor, single point]"},
      {"smiles": "COc1cccc(/C=N/NC(=O)c2nnn(-c3nonc3N)c2-c2cccs2)c1", "Potency": "inconclusive [inhibitor, partial curve]"},
      {"smiles": "Cc1ccc(-n2ncc3c(NCc4ccc5c(c4)OCO5)ncnc32)c(C)c1", "Potency": "inconclusive [inhibitor, single point]"},
      {"smiles": "Cc1ccc(NC(=O)c2ccc3nc(N4CCOCC4)sc3c2)c(Cl)c1", "activity change, negative = inhibition": "inactive: 43.9%"},
      {"smiles": "CCN(CC)C(CNS(=O)(=O)c1ccc(Cl)cc1)c1ccccc1", "note": "(stereo not drawn)", "activity change, negative = inhibition": "inactive: 1.12%"},
      {"smiles": "CCOc1ncccc1C(=O)Nc1cc(S(=O)(=O)N2CCCCC2)ccc1Cl", "Potency": "inconclusive [inhibitor, full curve]"},
      {"smiles": "Brc1ccc(/C=N/Nc2ccccn2)cc1", "activity change, negative = inhibition": "inactive: 56%"},
      {"smiles": "COc1ccc(/C=N/NC(=O)C(=O)/C=C2\\NC3(CCCC3)Cc3ccccc32)cc1", "Potency": "inconclusive [inhibitor, single point]"},
      {"smiles": "CCc1nc(Nc2cccc(F)c2)c2oc3ccccc3c2n1", "Potency": "inconclusive [inhibitor, partial curve, poor fit]"},
      {"smiles": "CC(=O)c1ccc(N2CCN(CN3C(=O)CC4(CCCC4)C3=O)CC2)c(F)c1", "Potency": "inconclusive [inhibitor, full curve]"},
      {"smiles": "CN(C)C(CNC(=O)c1ccc(-c2ccccc2)cc1)c1ccccc1", "note": "(stereo not drawn)", "Potency": "inconclusive [inhibitor, partial curve, poor fit]"},
      {"smiles": "CC1CCCCC1NC(=O)c1nn(C)c2c1CS(=O)(=O)c1ccccc1-2", "note": "(stereo not drawn)", "activity change, negative = inhibition": "inactive: 6.36%"},
      {"smiles": "COc1cc(/C=C2\\SC(=O)N(c3ccc(Cl)cc3)C2=O)cc([N+](=O)[O-])c1O", "activity change, negative = inhibition": "inactive: -24.1%"},
      {"smiles": "Cc1nc([N+](=O)[O-])cn1C(C)C", "Potency": "inconclusive [inhibitor, full curve, poor fit]"},
      {"smiles": "CCOc1ccc(C(=O)CC(NCc2cccs2)C(=O)O)cc1", "note": "(stereo not drawn)", "Potency": "inconclusive [inhibitor, full curve, poor fit]"},
      {"smiles": "O=C(CCl)N(CCc1ccccc1)CCc1ccccc1", "Potency": "active: 11.7 µM"},
      {"smiles": "CC(=O)N1CCC2(CC1)C/C(=N\\NC(=S)Nc1ccc(C)cc1)c1cc(O)ccc1O2", "Potency": "inconclusive [inhibitor, partial curve, poor fit]"},
      {"smiles": "O=C(N/N=C/c1nn(-c2ccccc2)cc1-c1ccccc1)c1ccncc1", "Potency": "inconclusive [inhibitor, single point]"},
      {"smiles": "Cc1cc2oc(=O)cc(CN3CCN(Cc4ccccc4)CC3)c2cc1Cl", "Potency": "inconclusive [inhibitor, single point]"},
      {"smiles": "COc1ccc(-c2nnc(SCC#CCO)o2)cc1OC", "activity change, negative = inhibition": "inactive: 5.68%"},
      {"smiles": "O=c1cc(O)c(-c2cccc(C(F)(F)F)c2)c(Cl)[nH]1", "activity change, negative = inhibition": "inactive: 9.62%"},
      {"smiles": "CCN(CCCCOC(=O)c1ccc(OC)c(OC)c1)[C@@H](C)Cc1ccc(OC)cc1", "Potency": "inconclusive [inhibitor, partial curve, poor fit]"},
      {"smiles": "COc1ccc(-c2cc(C(=O)Nc3c(Cl)cc(Cl)cc3Cl)c3ccccc3n2)cc1OC", "Potency": "active: 13.1 µM"},
      {"smiles": "CC(C)[C@H](NC(=O)c1ccccc1Cl)C(=O)Nc1nc(-c2ccccn2)cs1", "Potency": "active: 9.28 µM"},
      {"smiles": "CCN(Cc1cc2ccccc2[nH]c1=O)C(=O)C(C)C", "activity change, negative = inhibition": "inactive: -2.48%"},
      {"smiles": "Nn1c(SCC(=O)Nc2ccccc2F)nnc1-c1cccs1", "activity change, negative = inhibition": "inactive: -2.4%"},
      {"smiles": "COc1ccc(OC)c(C(=O)c2coc3ccc(O)c(CN4CCOCC4)c23)c1", "Potency": "inconclusive [inhibitor, single point]"},
      {"smiles": "CC1CCCN(C(=O)c2ccc(Cl)c(S(=O)(=O)N3CCCCCC3)c2)C1", "note": "(stereo not drawn)", "activity change, negative = inhibition": "inactive: -4.08%"},
      {"smiles": "Cc1c(NC(=O)OCCNC(=O)Nc2ccccc2)sc(=S)n1C", "activity change, negative = inhibition": "inactive: 11.9%"},
      {"smiles": "COc1cc(C2Nc3ccc4ncccc4c3C3=C2C(=O)CC(C)(C)C3)cc(OC)c1O", "note": "(stereo not drawn)", "Potency": "inconclusive [inhibitor, single point]"},
      {"smiles": "CC(C)(C)c1ccc(C(O)CCCN2CCC(C(O)(c3ccccc3)c3ccccc3)CC2)cc1", "note": "(stereo not drawn)", "Potency": "inconclusive [inhibitor, partial curve, poor fit]"},
      {"smiles": "Cc1ccc(Cn2c(O)c(N=O)c3ccccc32)cc1", "Potency": "inconclusive [inhibitor, single point]"},
      {"smiles": "O=C(N/C(=C\\c1cccnc1)C(=O)N1CCOCC1)c1cccc(Br)c1", "activity change, negative = inhibition": "inactive: -15.9%"},
      {"smiles": "CN1Cc2sc(NC(=S)NC(=O)c3ccccc3)c(C#N)c2CC1(C)C", "activity change, negative = inhibition": "inactive: -20.9%"},
      {"smiles": "COc1ccc(CNC(=O)C2CCN(C(=O)c3ccc(F)cc3)CC2)cc1OC", "Potency": "inconclusive [inhibitor, single point]"},
      {"smiles": "Fc1ccc(C(c2nnnn2Cc2cccs2)N2CCN(C3CCCC3)CC2)cc1", "note": "(stereo not drawn)", "Potency": "inconclusive [inhibitor, single point]"},
      {"smiles": "COc1ccc(C(O)(C2CCCCC2)C(CN2CCCC2)c2ccccc2)cc1", "note": "(stereo not drawn)", "Potency": "active: 11.7 µM"},
      {"smiles": "O=C(NCCc1ccccc1)C1CCN(S(=O)(=O)N2CCC3(CC2)OCCO3)CC1", "activity change, negative = inhibition": "inactive: -14.2%"},
      {"smiles": "COc1c(C)cc(C(=O)C2CCCN(C(=O)c3cc4nc(C)cc(C)n4n3)C2)cc1C", "note": "(stereo not drawn)", "Potency": "inconclusive [inhibitor, full curve, poor fit]"}
    ]}
  ]
}
